Results from the supplement of paper PMC11417369.
The list shows a part of the results.

The sequences below were run on PF3D7_0420300 AP2 domain 1 (GST-tagged) (assay: gcPBM binding intensity (ln(normalized median fluorescence intensity)); higher = stronger DNA binding).
Procedure, shortened: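 The binding buffer was 1× PBS containing 1% milk, 0.2 mg/ml BSA, 0.5% salmon testes DNA and 0.03% Triton X-100. In it, GST-tagged P. falciparum DNA-binding domains expressed in E. coli were applied for 1 h to an Agilent 4 × 180k array of primer-extended double-stranded 36-bp intergenic genomic probes plus negative controls. Binding intensity, read with Alexa488 anti-GST antibody and a 488 nm scan, is the highest Masliner-normalised natural-log median intensity across replicate spots of either probe orientation.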

Sequence | gcPBM binding intensity (ln)
TTAAAAAAAAAACACACACACATACCCATATATATA [CACACA_site5768] | 9.97
TATAAAAATATATATATATATATATATATAATATGT [TGCATGCA_negctrl_site85] | 9.04
ATTTGTTCCTTGGGAGTTTACTTTTTTTTAATTTTA [CACACA_negctrl_site638] | 9.54
TTCTTTTTAATTAATACACACACACCCATATATATA [CACACA_site8719] | 10
AACAAAATTGAAGGAACACACATACATATTTATATA [CACACA_site6227] | 9.72
AAAAAATTAGATTATGCACACACACTAATAAATAAT [CACACA_site8604] | 9.84
CATATAAATACATGCACACAAAAATATCAATACATT [CACACA_site2392] | 9.72
TTTATTTAAGAAAAATGTACAGGTTCATTTCATAAT [XGTACX_site27] | 8.8
TTTTTTTTTTTTTTATGTACACATCTAAAAAAAAGG [XGTACX_site2067] | 8.5
GCCCCCTAAAAAATTACACACGAAAAAAATGAATTT [CACACA_site9128] | 9.9
GGTCTAACAACATGCGCACACACATGAATATTCATA [CACACA_site1539] | 9.78
TAAGTATAAAAAAATAGTACAATTATGAAATATCGT [XGTACX_site2529] | 9.5
TTTAACAAGTTAAACACACATACATATATACATATA [CACACA_site2536] | 9.4
GTGTAGATATTGAAATGTACTCTCCATATAAAATAA [XGTACX_site4713] | 9.07
AAAGAATTTGCATATACACACAAAAAAATATATACA [CACACA_site386] | 9.5
TTACGATACTTTAGGTGTACACAAATATACATGAAT [XGTACX_site4322] | 9.33
ATATATATATATATATGTACTTATTTATTTATATTA [XGTACX_site4646] | 9.21
TTGCATTAATTTATGTGTACATATAAATTTTTATTT [XGTACX_site3060] | 9.07
TATAAATATAAATATACACACATATATATATATATA [CACACA_site1678] | 9.17
ATCAGTCGGCAGGACAGTACACAGTAGCCAGAAAAT [XGTACX_site2550] | 9.49
CTTATAGGTCATTTCCTTGACCCCCTTTGTTGTACT [CACACA_negctrl_site551] | 9.19
ATAAATACATATGTGTGTACACATTATATATATATA [XGTACX_site1486] | 9.46

Sequence | gcPBM binding intensity (ln)
GAAAAATTAAAACCTACACACACATTTAAAAAAAAA [CACACA_site9005] | 9.9
ATATATATATAATCATCACACATGCAGCCCTGATGA [CACACA_site5500] | 9.28
TATATATTACATACATGTACCCAAAAAAAAAAAAAA [XGTACX_site1168] | 9.08
GAATGAATACGTTTTACACACTTGAATCTAATTTCA [CACACA_site6593] | 9.29
ATTCTACTTTTATTTATTTATTTGTTTATATATATA [XGTACX_negctrl_site609] | 9.75
TTTTTTATTCATGTAACACACATTTAATTATGAATT [CACACA_site2706] | 9.29
TATACATACACATACACACATACACCCATACACATA [CACACA_site1746] | 9.93
ATCCTAATATTGAACTGTACCTTATATGTTATTATA [XGTACX_site1014] | 9.46
GGTTATATATTTTTTGCACACCAAAAAAGAGAATAT [CACACA_site2731] | 9.37
ACGTGTATTTATTTAGTGCACTTTATATTTTTTCTT [GTGCAC_site9426] | 9.58
TATATATATATATATACACACATATATACATATATA [CACACA_site4043] | 9.25
TTATAAATAAAAAATACACACATATATTTATTTATA [CACACA_site6242] | 9.34
ATAATATATGAAAGTGGTACACAAAGGAAAATAAAA [XGTACX_site333] | 9.52
AATAATAAATCAAACTGTACATATATTTTCAATCTA [XGTACX_site3344] | 9.3
TGTAGTCTGGAGAAAAGTACACAGTATCCGGTAACT [XGTACX_site4934] | 9.18
TTTTTTTTTTTGTTCACACATATATATATATATATA [CACACA_site5376] | 9.36
AATGTATATATATATATATATATATATATTTATTTA [CACACA_negctrl_site113] | 8.89
AAGAAAATAGAAAATACACACAGCAAACAGAGGAAT [CACACA_site3785] | 9.97
ATATATATATATTTATGTACATATATTTTTTTTTTT [XGTACX_site8558] | 9.25
AATAAATAAATACATCTCAGTATATAAACAAACAAA [CACACA_negctrl_site1604] | 9.52
ATGAAACATGTATATTGTACTCTGGATCAATTTAAT [XGTACX_site6413] | 9.07
AAGCCTTAAAAGGAAAGTACGTATATATATATATAT [XGTACX_site8559] | 9.06

Sequence | gcPBM binding intensity (ln)
ATATTTAATTAAAAGAGTACTTAAATAAAATAAATG [XGTACX_site2149] | 9.13
AAATTTATTATATATACATGCAATCATAAATAATGT [TGCATGCA_site539] | 9.17
AATACATATAATACAACACACAAGTAATATAAACCT [CACACA_site3597] | 9.93
GGATATAACAAACACACACACACATATATATATATT [CACACA_site4141] | 10.2
TTTAAATGAAAAAAAGGTACACAATATTATTCTTAT [XGTACX_site8612] | 9.2
AAAAAAAAAAAACACACACACACACTAGTATATAAA [CACACA_site4783] | 10.2
AATACTTATTATGAAACACACACCAAAACTACATAA [CACACA_site270] | 9.76
AAGAAAAAAAAAAATATATATACATATATATATATA [TGCATGCA_negctrl_site485] | 8.83
AAAATAAAATAAAACACAAAAAAATAAAACAAAATA [CACACA_negctrl_site16] | 9.8
AAATAAAATATATACATATATATATTATTTAGTAAT [XGTACX_negctrl_site375] | 9.15
TATATATCCATGTGTACACACAAAAAAAAATAAAGT [CACACA_site7107] | 9.94
AAATATGTTTATATATGTACTTATAATTCAAAATAT [XGTACX_site2167] | 9.09
TCTATGCGTTTTAATAGTACATATAAAATTTATACA [XGTACX_site6986] | 9.09
TAATTAACAAACTATAGTACACAAAATACTTCATAT [XGTACX_site6375] | 9.44
ATATACACACATAAGTGTACTTATATTTCATATATA [XGTACX_site8646] | 9.44
CCATGTCACAATTTTTCACACACAAAATTTATATAC [CACACA_site8628] | 9.72
AAAAAGGATAAACACACACACACACCGATATATATA [CACACA_site8206] | 10.2
TTATTTTTGTGTAAGGTGCTATATATAATGTTTTTA | 9.43
AAATGTGATATAAGTACACACACATATGTATATATA [CACACA_site8539] | 9.6
AACGAAATCATCAAGTGTACTAGTTTATTATTAATA [XGTACX_site6161] | 9.2
TATGTATATTATATGACACACATTTATATATATATA [CACACA_site1167] | 9.32
TTTTGTTGATTTATATCTGTAGGGTTTAATATAACA [XGTACX_negctrl_site174] | 9.13

Sequence | gcPBM binding intensity (ln)
TTAACTATGAATACATGTACATGAAAATATTTCAAT [XGTACX_site1069] | 9.04
GGCAAATTTATTATACCCACATACATACATACATAC [XGTACX_negctrl_site186] | 9.24
AAAATTAAACAAAGTTGTACAAAATAATAATAAAAG [XGTACX_site7515] | 9.56
AAATTAATAAAAAATGGTACACAAAATGGATGTATA [XGTACX_site1561] | 9.34
TTTATATTAATTGATGTGCACTGAAATATTTGTCCA [GTGCAC_site9655] | 9.05
ACCCTATAGGTAACTACACACCGCATATTGTTTACT [CACACA_site7436] | 9.64
ATTAATAATCGAAAGGTGCACTTTGATTTGATAACA | 9.26
TAATTAAAATTATTTATAAATTAGTATATTTCTATA [CACACA_negctrl_site663] | 8.85
TTATTATTTTATCGTAGTACACCTAAATTATAAAAC [XGTACX_site5251] | 8.99
TTACAAAAATTTTGTTCACACATAAAAATATGTTAC [CACACA_site5740] | 9.1
TAATAAATTATTTTTTATTATTTTAATAACACTTCA [CACACA_negctrl_site3] | 9
ATATATTTTTCAAAATGTACAAATAATTAAATACCA [XGTACX_site875] | 9.18
ATATAAAAAAATTGCACACATAAATATATACATATA [CACACA_site1218] | 9.45
GATACATAGAAACACACACACATACATATATACATA [CACACA_site3438] | 10
TTTATGTACAGACATATACACACCTCTATAATATAT [CACACA_site730] | 9.45
TCACAAAAAGAACATTGATATTATTATAAAATCGTC [GTGCAC_negctrl_site177] | 9.17
TATTGTAATATTATATATATCTATTATGTATATAAA [CACACA_negctrl_site454] | 9.02
AATTATATATTAAAAAGTACAAGTTAATATAATATA [XGTACX_site2737] | 9.34
GTAATTAAAATATATACACACAAAGGCTATTAAATA [CACACA_site1011] | 9.67
ATTTATGAAAGAAATAGTACACACATAAACATTTGT [XGTACX_site5862] | 9.63
TATATAAAATATTAATGTACATATAAATATATATAT [XGTACX_site6656] | 9.14
TTTAATACGAATGAGGCACACACCTAGTATACATGC [CACACA_site621] | 9.55
